Measurements: PubChem BioAssay AID360 (National Center for Advancing Translational Sciences (NCATS), 2006)
Among all 48,000 compounds or so, about 550 (1.1%) were called active. Inconclusive results (about 4%) are left out. Cut-off read from the data, not from the text of the source: active = potency below about 15 µM; inconclusive = mostly about 16 µM to 33 µM; inactive = weaker than that. The list shows a part of the results.

The molecules below were run against Lysosomal acid glucosylceramidase (Homo sapiens) (UniProt P04062) (assay: Glucocerebrosidase). Details: purified enzyme, resorufin glucoside fluorescence (screen aimed at inhibitors), 20 min; series mostly up to 77 µM.
Method in brief: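 Wild-type enzyme at 0.2 nM final in 50mM citric acid/KH2PO4, 10mM sodium taurocholate, 0.01% tween-20, pH 5.9, with resorufin beta-D-glucopyranoside at 30 uM final. Compounds titrated, 20 min at RT, red fluorescence read; AC50 from titration.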
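Note: the screen sought inhibitors.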
Potency is the fitted concentration of half-maximal effect.

Sequence of UniProt P04062 (P04062 whole entry, looked up): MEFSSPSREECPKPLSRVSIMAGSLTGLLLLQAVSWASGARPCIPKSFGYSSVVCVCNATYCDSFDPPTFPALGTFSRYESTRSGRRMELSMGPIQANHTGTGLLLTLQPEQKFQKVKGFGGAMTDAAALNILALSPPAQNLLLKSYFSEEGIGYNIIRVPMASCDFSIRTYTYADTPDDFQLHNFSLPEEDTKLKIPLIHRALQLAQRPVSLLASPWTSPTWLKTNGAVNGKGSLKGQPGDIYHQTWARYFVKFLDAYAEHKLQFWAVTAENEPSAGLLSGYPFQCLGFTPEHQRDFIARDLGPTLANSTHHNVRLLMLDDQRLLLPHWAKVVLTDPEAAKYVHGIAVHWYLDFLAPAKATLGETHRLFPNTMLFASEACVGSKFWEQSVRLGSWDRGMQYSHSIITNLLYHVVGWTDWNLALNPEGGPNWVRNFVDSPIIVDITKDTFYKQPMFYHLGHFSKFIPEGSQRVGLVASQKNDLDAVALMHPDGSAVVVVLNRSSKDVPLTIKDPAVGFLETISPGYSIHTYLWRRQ

Potency, inactive:
CC1CCCN(Cc2nc3c(c(=O)n(C)c(=O)n3C)n2CC(N)=O)C1 (stereo not drawn) > 76.9 µM
CCn1c(=O)n(CC)c2cc(S(=O)(=O)N3CCc4ccccc43)ccc21 > 76.9 µM
CC1(C)Cc2cccc(OCC(=O)N3CCN(S(=O)(=O)c4ccccc4)CC3)c2O1 > 76.9 µM
COc1cccc(NC(=O)CN2C(=O)C3(OCCCO3)c3ccccc32)c1 > 76.9 µM
COc1ccc(N(C)S(=O)(=O)c2cccc3cccnc23)c(OC)c1 > 76.9 µM
O=c1c2cccnc2[nH]c(=S)n1CCCN1CCN(c2ccccc2F)CC1 > 76.9 µM
CC(NC(=O)c1ccccc1NC(=O)c1ccco1)c1ccccc1 (stereo not drawn) > 76.9 µM
O=C(Nc1cnn(C23CC4CC(CC(C4)C2)C3)c1)c1cnn2c(C(F)(F)F)cc(-c3ccco3)nc12 > 76.9 µM
CC(=O)Nc1ccc(S(=O)(=O)Nc2c(C)n(C)n(-c3ccccc3)c2=O)cc1 > 76.9 µM
COc1ccccc1NC(=O)CN1C(=O)C2(OCCCO2)c2ccccc21 > 76.9 µM
Cc1c(C(=O)N2CCCCCC2)oc2ccccc12 > 76.9 µM
COc1cc2[nH]c(=O)n(CCCCCC(=O)N3CCN(c4ccccc4)CC3)c(=O)c2cc1OC > 76.9 µM
COc1ccc(C(N)=O)cc1NC(=O)CC(O)(C(F)(F)F)C(F)(F)F > 76.9 µM
Cc1onc(-c2c(F)cccc2Cl)c1C(=O)N1CCN(S(C)(=O)=O)CC1 > 76.9 µM
CCOC(=O)c1[nH]c(C)c(C(=O)NCCC2=CCCCC2)c1C > 76.9 µM
CCOC(=O)C1(C)NC(c2ccc(OC)c(OC)c2)C2C(=O)N(CC)C(=O)C21 (stereo not drawn) > 76.9 µM
CC(=O)Nc1ccc(Cl)c(C(N)=O)c1 > 76.9 µM
COc1ccc(Cn2c(=O)sc3ccccc32)cc1OC > 76.9 µM
Cc1nc2ccc(F)cc2cc1C(=O)NCC1CCCO1 (stereo not drawn) > 76.9 µM
CCC1Oc2ccc(C)cc2N(CC(=O)NCc2ccccc2OC)C1=O (stereo not drawn) > 76.9 µM
O=S(=O)(c1ccc(Cl)cc1)N1CCN(c2ccc(N3CCOCC3)nn2)CC1 > 76.9 µM
Cn1c(C(=O)OC(C(=O)NC2CCCC2)c2cccnc2)cc2sccc21 (stereo not drawn) > 76.9 µM
CSc1nsc(SCC(=O)N2CCCc3ccccc32)n1 > 76.9 µM
CN1C(=O)SC(Nc2ccc(F)cc2)C1=O (stereo not drawn) > 76.9 µM
CCOC(=O)CSc1nc2ccccc2c(=O)n1CCN1CCOCC1 > 76.9 µM
Cc1occc1C(=O)Nc1ccc(S(=O)(=O)N2CCCC2)cc1 > 76.9 µM
CC1CCCCN1CCNS(=O)(=O)c1ccc2c(c1)oc(=O)n2C (stereo not drawn) > 76.9 µM
COC(=O)c1cc(=O)n(Cc2cccs2)c(=NCc2cccs2)s1 > 76.9 µM
O=C1C(SC(F)(F)C(F)F)=C(C(F)(F)F)OC2C3C=CC(C3)C12 (stereo not drawn) > 76.9 µM
N#CCSc1nnc(-c2cccnc2)n1-c1ccccc1 > 76.9 µM
Cc1nn(Cc2ccccc2Cl)c(C)c1C(=O)NC1=NCCS1 > 76.9 µM
Cc1cc(C)c(C(=O)CSc2n[nH]c(=O)n2C2CC2)cc1C > 76.9 µM
CCNc1nc(Oc2ccc(C(=O)OC)cc2)nc(SC)n1 > 76.9 µM
CCOC(=O)c1cnc(-n2nc(C)cc2C)nc1Nc1ccc2c(c1)OCO2 > 76.9 µM
COc1ccc(O)c(-c2c(-c3ccc(Cl)cc3)n[nH]c2C)c1 > 76.9 µM
COc1ccc(N2C(=O)c3cccc4cccc(c34)C2=O)nn1 > 76.9 µM
c1ccc(Cn2c(-c3ccco3)nc3nc4ccccc4nc32)cc1 > 76.9 µM
CS(=O)(=O)N1CCCC(C(=O)NCCCN2CCN(Cc3ccccc3)CC2)C1 (stereo not drawn) > 76.9 µM
COC(=O)CCC(=O)Nc1sc(C)c(C)c1C(N)=O > 76.9 µM
Cc1ccccc1N(CC(=O)Nc1ccc(F)cc1)S(C)(=O)=O > 76.9 µM
CCOC(=O)CC(=O)CSc1nnc2c(n1)[nH]c1ccccc12 > 76.9 µM
O=C(CSc1nnc(-c2ccc(Cl)s2)o1)N1CCOCC1 > 76.9 µM
COC(=O)c1cc(Br)c(=O)n(Cc2ccc(OC)c(OC)c2)c1 > 76.9 µM
O=C(CN1C(=O)c2ccccc2S1(=O)=O)N1CCN(c2ccccc2F)CC1 > 76.9 µM
O=C(Nc1ccon1)c1ccc(Br)o1 > 76.9 µM
CCOC1=NC(C(=O)O)c2ccccc2/C(=C(/C)Cl)N1 (stereo not drawn) > 76.9 µM
CCCNC(=O)c1nc2ncc(Br)cn2n1 > 76.9 µM
CCCNC(=O)CN(C1CCCCC1)S(C)(=O)=O > 76.9 µM
O=C(Nc1ccc2c(c1)OCO2)c1c(F)c(F)c(F)c(F)c1F > 76.9 µM
COC(=O)c1ccc(NC(=O)Nc2ccc(F)cc2)cc1 > 76.9 µM
CCOc1cc(S(=O)(=O)N2CCOCC2)ccc1F > 76.9 µM
CCCCNC(=O)NS(=O)(=O)c1ccc(C(=O)OC)o1 > 76.9 µM
COc1cccc(Nc2nnc(SCn3nnc4ccccc4c3=O)s2)c1 > 76.9 µM
COc1cccc(N2CCN(S(=O)(=O)c3ccc4nc(-c5ccccc5)[nH]c4c3)CC2)c1 > 76.9 µM
C=CCN=C(CC)C1=C(O)CCCC1=O > 76.9 µM
Cc1ccc(S(=O)(=O)NC(CC(N)=O)C(=O)O)cc1 (stereo not drawn) > 76.9 µM
Cc1cccc2cc(C(c3nnnn3C3CCCC3)N3CCOCC3)c(=O)[nH]c12 (stereo not drawn) > 76.9 µM
CCC(Sc1nnnn1C)C(=O)Nc1ccc(C(C)=O)cc1 (stereo not drawn) > 76.9 µM
